In all, about 2,800 compounds went through this assay and fewer than 10 were called active. The call rests on the fitted dose curve; in most records, active means well fitted curve in the direction sought with a large enough effect; inconclusive means small, poorly fitted or top-dose-only effect, or another doubt; inactive means no such curve, though single readings can be large or run the other way. The list shows a part of the results.
target: Metallo-beta-lactamase type 2 (Klebsiella pneumoniae) (UniProt C7C422); assay: qHTS to identify inhibitors of the New Delhi Metallo-beta-lactamase (NDM): Meropenem screen against the machine-based learning selections.; further: % of control where 0% means no effect; settings: Purified NDM-1, meropenem hydrolysis, absorbance 300 nm; at 38.4 µM (top of the series) unless noted
How it was run: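 Hydrolysis by 2 nM NDM-1 was followed by absorbance after >30 min compound preincubation in HEPES pH 7.0 buffer with 1 uM Zn2SO4. For nitrocefin (16.7 uM, 15 min, 485 nm) and meropenem (50 uM, 30 min, 300 nm), each substrate ran on separate plates.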

Sequence of UniProt C7C422 (C7C422 whole entry, looked up): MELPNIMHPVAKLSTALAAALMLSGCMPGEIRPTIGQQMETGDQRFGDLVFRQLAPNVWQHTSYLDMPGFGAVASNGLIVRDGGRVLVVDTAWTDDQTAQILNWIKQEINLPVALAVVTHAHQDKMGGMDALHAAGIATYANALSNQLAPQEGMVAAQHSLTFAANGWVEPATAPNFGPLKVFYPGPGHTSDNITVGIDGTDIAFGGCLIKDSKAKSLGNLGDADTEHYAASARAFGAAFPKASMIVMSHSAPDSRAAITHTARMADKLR

| Structure (SMILES) | activity change, negative = inhibition |
| --- | --- |
| Cc1cccc(CN2CCNc3cc(Nc4cccnc4)ncc3C2)c1 | inactive: 6.89% [at 57.5 µM] |
| O=C(CCc1nc2ccccc2s1)N[C@H](c1ccccn1)C1CC(O)C1 (some centres not stated) | inactive: 0.35% |
| Cc1nc(C(=O)NC2CC(c3cc(N4CCC(O)C4)ncn3)C2)cs1 (configuration not stated) | inactive: 4.51% |
| O=C(Cc1ccccc1)N1CCNc2cnc(Nc3ccccc3)nc2C1 | inactive: 9.53% [at 57.5 µM] |
| CCn1ncc(N2CCC(NC(=O)c3ccccc3OC)CC2)cc1=O | inactive: 6.48% |
| CC(C)CS(=O)(=O)Nc1ccc([C@H]2OCC(=O)N(Cc3ccc(F)cc3)[C@@H]2CO)cc1 | inactive: 0.948% |
| CC(C)NC(=O)NCC1(COc2ccccc2)C[C@@H](O)[C@@H](O)C1 (some centres not stated) | inactive: 0.467% [at 57.5 µM] |
| Cc1nc(NCc2ccc(C(=O)N3CCCCC3)cc2)cc(C2CC(N)C2)n1 (configuration not stated) | inactive: 31.9% |
| CCNC(=O)c1ccccc1-c1ccc(O)cc1 | inactive: 1.08% |
| OC1CC(c2cc(NCCCn3ccc4ccccc43)ncn2)C1 (configuration not stated) | inactive: -0.0871% |
| CNS(=O)(=O)CCNc1nccc(-c2cc(C(=O)O)ccn2)n1 | inactive: 27.4% |
| NS(=O)(=O)c1ccc(-n2nc(-c3ccncc3)nc2C2CCOC2)cc1 (configuration not stated) | inactive: -0.257% |
| CN1CCC(NC[C@H]2COCc3nc4cc(S(C)(=O)=O)ccc4n32)CC1 | inactive: 1.43% [at 57.5 µM] |
| CN(Cc1ccc2nonc2c1)C(C(=O)O)c1ccc(-c2ccn[nH]2)cc1 (configuration not stated) | inactive: 48% |
| COC[C@H]1C[C@@H](NS(=O)(=O)c2cccc(F)c2)[C@H](O)[C@@H]1O | inactive: 0.63% [at 57.5 µM] |
| O=C(NCc1nc(-c2ccncc2)n[nH]1)[C@H]1CCC[C@H](O)C1 | inactive: -0.451% |
| O=C(Nc1ccccc1)O[C@@H]1CO[C@H]2[C@@H]1OC[C@@H]2NS(=O)(=O)c1cccc2cccnc12 | inactive: 0.561% |
| O=c1cc(-c2ccccn2)oc2c(Nc3cccnc3)nccc12 | inactive: 28.9% [at 57.5 µM] |
| COC(C)c1ccc(-c2cc(C(=O)O)cc(S(=O)(=O)NC(C)C)c2)cc1 (configuration not stated) | inactive: 1.58% |
| CCC1C(=O)N(C)CCN1C(=O)c1coc(COc2ccc3c(c2)OCO3)n1 (configuration not stated) | inactive: -1.14% |
| c1ccc(Nc2cc3c(cn2)CN(Cc2ccc4[nH]ccc4c2)CCN3)cc1 | inactive: 3.66% [at 57.5 µM] |
| Cc1ccccc1N(C)C1CN(Cc2ccccc2)C1 | inactive: -0.354% [at 57.5 µM] |
| CC(C)(CO)CNC(=O)c1cnc2c(c1)N([S+](=O)([O-])c1cccnc1)CCC2 | inactive: 2.99% [at 57.5 µM] |
| COCCN1CCC(CN(Cc2ccncc2)C(=O)c2cnco2)CC1 | inactive: 4.75% |
| O=C(Nc1cccnc1)c1ccnc(-c2nnc3ccc(Nc4ccccc4)nn23)c1 | inactive: 28.9% [at 57.5 µM] |
| CCCOc1ccccc1C(=O)N1CC[C@H](N(C)C)[C@H](CCC(=O)O)C1 | inactive: -2.23% |

| Structure (SMILES) | activity change, negative = inhibition |
| --- | --- |
| NC(=O)CO[C@@H]1CO[C@H]2[C@@H]1OC[C@@H]2NC(=O)NCc1ccccc1 | inactive: -0.0049% [at 57.5 µM] |
| O=C1N(CC2CCC2)CCCC12CCN(Cc1ccc(-c3ccn[nH]3)s1)C2 (configuration not stated) | inactive: 3.33% |
| O=C1NCCCCCN(C(=O)NC2CCCCC2)[C@H]2CCCC[C@@H]12 | inactive: -2.93% |
| O=C(c1ccoc1)N1CCCn2cc(-c3ccccc3)nc21 | inactive: 5.25% |
| Cc1ccnc(N2CCN(C3CCC4(CCNCC4)CC3)CC2)c1 | inactive: 46% |
| CN(Cc1ccccc1)C(=O)C[C@@H]1CCNC[C@@H]1Cc1cc(-c2ccc(C(C)(C)C)cc2)on1 | inactive: -3.25% |
| Cc1noc2c(-c3cccnc3NC3CCC(O)CC3)cc(-c3ccccc3)nc12 (configuration not stated) | inactive: 62.3% [at 57.5 µM] |
| CC(=O)Nc1ccc(S(=O)(=O)NC[C@@H]2C=C(C)[C@H](CC(=O)NCCN(C)C)C[C@H]2C(C)C)cc1 | inactive: -1.22% |
| N#Cc1ccc(C(=O)N2C[C@@H]3C[C@H](C2)c2ccc(-c4ccc(OC(F)(F)F)cc4)c(=O)n2C3)cc1 | inactive: -1.86% |
| Cc1ccc(C(=O)NC[C@@H]2CC[C@H]3C[C@@H]2C3(C)C)cc1 | inactive: 0.368% [at 57.5 µM] |
| Cc1nc(C(C)C)sc1CNC(=O)C1CCC(=O)N(C2CCCC2)C1 (configuration not stated) | inactive: 0.213% |
| CCc1cc(=O)n(CC(=O)Nc2ccc(C(F)(F)F)cc2)c(N2CCOCC2)n1 | inactive: -0.247% |
| CC1(C(=O)NCCc2ccccn2)COCc2cnc(Nc3ccccc3)nc21 (configuration not stated) | inactive: 8.33% [at 57.5 µM] |
| CC1(CNc2ccccc2)COc2ccc(C(=O)NCCc3cnc[nH]3)cc2N1 (configuration not stated) | inactive: 11.9% [at 57.5 µM] |
| CN1Cc2ncnc(NCCc3ccc(F)cc3)c2CN(c2ccc(Cl)cc2)C1=O | inactive: -0.174% |
| COC(=O)c1cn([C@H]2CO[C@H]3[C@@H]2OC[C@H]3OC(=O)Nc2cccc(C#N)c2)nn1 | inactive: -0.026% [at 57.5 µM] |
| COC[C@@H]1CN(C(=O)c2ccc(OC)nc2)C[C@H]1c1nc(C2CC2)no1 | inactive: 0.661% |
| NC(=O)Cc1c[nH]c2ncc(-c3ccc4c(c3)OCO4)cc12 | inactive: 7.8% [at 57.5 µM] |
| O=C(NC(c1ccccc1)c1ccccc1)c1cnc2c(c1)N(Cc1ccccc1)CCC2 | inactive: -2.65% [at 57.5 µM] |
| O=C(N[C@H]1CC[C@H](Nc2nccc(-c3cccnc3)n2)C1)c1ccc(O)cc1 | inactive: -4.84% |
| COc1ccc(-c2cnc3[nH]cc(CC(=O)NCc4cnccn4)c3c2)cc1 | inactive: -2.43% [at 57.5 µM] |
| COc1nccnc1NC1CCN(C(=O)c2cccs2)CC1 | inactive: 1.07% |
| COc1cccc(NC(=O)N[C@H]2[C@H](O)[C@@H](N3CCN(C)CC3)[C@@H]3OC[C@H]2O3)c1 | inactive: -0.0731% [at 57.5 µM] |
| COC(=O)[C@H](Cc1ccc(OC)cc1)NC(=O)[C@H]1CN(S(=O)(=O)c2ccccc2)CCN1C(=O)c1cccs1 | inactive: 0.492% |
| CS(=O)(=O)N1CCCCC1CCNc1nccc(-c2cccnc2)n1 (configuration not stated) | inactive: 2.53% |
| CC(=O)N1CCN(CC[C@H]2CN(C(=O)c3ccnc(Cl)c3)CC[C@H]2CC(=O)O)CC1 | inactive: 26.6% |

| Structure (SMILES) | activity change, negative = inhibition |
| --- | --- |
| O=C(CN1C(=O)NC(c2ccccc2Cl)C2=C1COC2=O)Nc1ccc(F)c(Cl)c1 (configuration not stated) | inactive: 2.9% |
| O=[S+]([O-])(c1cccnc1)N1CCNc2cnc(Nc3ccc(-n4ccnc4)cc3)nc2C1 | inactive: 35.7% |
| Cc1ccc(-c2cc(N3CCC(CNC(=O)c4cc(C5CC5)[nH]n4)CC3)n[nH]2)cc1 | inactive: 5.43% |
| COc1cccc(CNC(=O)c2cc(-c3ccncc3)cn2C)c1OC | inactive: 2.14% |
| CCNC(=O)N1CCC[C@@H](O)[C@H](NC(=O)c2ccc(OCCOC)cc2)C1 | inactive: 0.107% [at 57.5 µM] |
| COc1cccc(CN2CCN(c3ncccc3Cl)CC2CCO)c1 (configuration not stated) | inactive: -2.21% |
| O=C(c1ccccc1)N1CCn2c(nn(-c3ccc([N+](=O)[O-])cc3)c2=O)C1 | inactive: 8.06% |
| COC(=O)c1cn([C@H]2CO[C@H]3[C@@H]2OC[C@@H]3NC(=O)c2ccc(N(C)C)cc2)nn1 | inactive: 14.7% [at 57.5 µM] |
| CCc1ccc(N2CC(c3noc(-c4cc(Cl)ccc4F)n3)CC2=O)cc1 (configuration not stated) | inactive: 0.385% |
| COc1ccc2c(c1)CCN=C2C[C@H]1CN(C(=O)c2cccc(F)c2)CC[C@H]1CC(=O)O | inactive: 3.07% |
| CCN(CC)Cc1cnc2c(C(=O)N3CCC(N(C)C)C3)cnn2c1 (configuration not stated) | inactive: -2.89% |
| CC(=O)N1CCC(NC2(Cc3cc(CN(C)Cc4ccccc4)on3)COC2)CC1 | inactive: -0.101% [at 57.5 µM] |
| Cn1c(CN2CCOCC2)nnc1C1CCN(c2ncccc2C#N)CC1 | inactive: 0.311% |
| Cc1ccc(NC(=O)O[C@@H]2CO[C@H]3[C@@H]2OC[C@@H]3Nc2nccc(-c3ccccc3)n2)cc1 | inactive: 2.93% [at 57.5 µM] |
| O=c1n(-c2ccc([N+](=O)[O-])cc2)nc2n1CCN(Cc1cccc3ccccc13)C2 | inactive: 6.62% |
| Cc1cc(Cn2cc3c4c(cccc42)[C@H](CC(C)C)N[C@H](C(=O)NCCN2CCCC2)C3)no1 | inactive: -3.17% |
| COc1ccc(C(=O)N2CCCC(O)(CN3CCCC3)C2)cc1Cl (configuration not stated) | inactive: -1.57% |
| COc1ccc(C(=O)N2CCC(N3CCCCCC3=O)CC2)cc1 | inactive: -0.899% [at 57.5 µM] |
| O[C@@H]1[C@@H](Cn2cc(-c3cccnc3)nn2)C[C@@H](NC2CCOCC2)[C@@H]1O | inactive: 47.6% |
| COC(=O)c1ccc2nc(CO[C@H]3CN(Cc4cnn(C)c4)C[C@H]3F)[nH]c2c1 | inactive: 2.32% [at 57.5 µM] |
| O=C(CN1CC2CC(C1)[C@H]1CCCC(=O)N1C2)NCc1cc(F)ccc1F (some centres not stated) | inactive: 1.21% |
| CC(=O)Nc1ccc(CN2CC3(C2)C(=O)N(Cc2ccc(C)o2)C(=O)[C@@H]2C[C@@H](O)CN23)cc1 | inactive: 0.75% |
| CCNC(=O)O[C@@H]1CO[C@H]2[C@@H]1OC[C@@H]2NC(=S)Nc1ccc(N(C)C)cc1 | inactive: 7.83% [at 57.5 µM] |
| CN(Cc1ccccc1)Cc1cn([C@H]2CO[C@H]3[C@@H]2OC[C@@H]3NC(=O)CCC(=O)O)nn1 | inactive: 3.39% [at 57.5 µM] |
| Cc1noc([C@@H](C)NS(=O)(=O)c2ccccc2)c1C(=O)O | inactive: 4.92% [at 57.5 µM] |
